Drawing on the supplement of paper PMC11880418, this text covers ALDHbr for 25 molecules.

Counter-ions that a name gives are not always drawn. This is one part of the list. The data scatter; read single values as rough.

Common to all, as to assay: ALDHbr (CSC) cell proportion score relative to DMSO vehicle (ratio to DMSO); breast (SUM159) / gastric (MKN45) / pancreatic (PANC1) / colon cancer lines; ALDHbr cells have high ALDH activity and are rich in cancer stem cells (CSC); higher = more CSC (ALDHbr) cells remaining
Settings in all cases: 10 µM; 72 h

The test system of test [1] is MKN45.
Test [2] deals with PANC1.
Test [3] relates to SUM159.
The subject of test [4] is T84.
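Note: High-content imaging of ALDEFLUOR-stained cells with Hoechst-labelled nuclei in 384-well plates, triplicate wells, scored as Z-score against 0.1% DMSO vehicle, negative meaning fewer ALDHbr cells.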

On to `CCC1(C)CC(=O)NC(=O)C1` [Bemegride], for which the ALDHbr was determined as 0.88 in test [1], 0.967 in test [2], 1.31 in test [3] and 0.972 in test [4].
Consider `CN1C(=O)CCS(=O)(=O)C1c1ccc(Cl)cc1` (stereo not given) [Chlormezanone], for which the ALDHbr in test [1] was determined as 0.978; in test [2] it was 0.945; in test [3], 1.22; in test [4], 0.934.
Regarding `CN(C)C(=O)Oc1cc(OC(=O)N(C)C)cc(C(O)CNC(C)(C)C)c1` (stereo not given) [Bambuterol hydrochloride], the ALDHbr in test [1] came out at 1.04; in test [2], 0.822; in test [3] it was 0.944; in test [4] it was 0.803.
Take `CN(C)[C@@H]1C(=O)C(C(N)=O)=C(O)[C@@]2(O)C(=O)C3=C(O)c4c(O)cccc4[C@@](C)(O)[C@H]3C[C@@H]12` [Tetracycline hydrochloride]: the ALDHbr in test [1] is 0.608; in test [2] it was 0.489; in test [3], 0.929; in test [4] it was 0.873.
Take `CC(C)c1c(CN(C)C(C)Cc2ccccc2)n(C)n(-c2ccccc2)c1=O` (stereo not given) [Famprofazone]: the ALDHbr worked out at 0.778 in test [1], 0.875 in test [2], 0.787 in test [3] and 0.858 in test [4].
For `O=C(CCCN1CCC2(CC1)C(=O)NCN2c1ccccc1)c1ccc(F)cc1` [Spiperone], the ALDHbr in test [1] was 1.54; in test [2], 1.13; in test [3], 0.717; in test [4], 0.55.
The matching figures for `COc1ccc2c(c1)[C@]13CCCC[C@@H]1[C@H](C2)N(C)CC3` [Dextromethorphan hydrobromide monohydrate]: 1.36, 1.05, 0.752 and 0.984.
Take `C[C@]12CCC(=O)C(O)=C1CC[C@@H]1[C@@H]2CC[C@]2(C)C(=O)CC[C@@H]12` [Formestane]: the ALDHbr in test [1] was found to be 0.941; in test [2], 0.963; in test [3], 0.983; in test [4], 0.88.
Taken in the same sequence, the figures for `CC[C@@H](C(N)=O)N1CCCC1=O` [Levetiracetam] were 1.15, 0.884, 1.29 and 1.17.
As to `CCNCC(O)c1cccc(O)c1` (stereo not given) [Etilefrine hydrochloride], the ALDHbr in test [1] worked out at 0.956; in test [2], 0.866; in test [3] it was 2.19; in test [4] it was 0.811.
The matching figures for `CCC1(CC)C(=O)C=CNC1=O` [Pyrithyldione]: 1.01, 1.01, 1.03 and 1.19.
As to `C[C@]12CC[C@H]3[C@@H](CCC4=CC(=O)CC[C@@H]43)[C@@H]1CC[C@@H]2O` [Nandrolone], the ALDHbr was found to be 0.911 in test [1], 0.864 in test [2], 0.927 in test [3] and 1.02 in test [4].
Turning to `COc1cccc(C2(O)CCCCC2CN(C)C)c1` (stereo not given) [Tramadol hydrochloride], the ALDHbr was determined as 1.02 in test [1], 0.793 in test [2], 0.976 in test [3] and 1.07 in test [4].
On to `C=CCN1CC[C@]23c4c5ccc(O)c4O[C@H]2C(=O)CC[C@@]3(O)[C@H]1C5` [Naloxone hydrochloride], for which the ALDHbr in test [1] amounted to 0.878; in test [2] it was 0.975; in test [3] it was 0.979; in test [4], 0.964.
Turning to `CCC(=O)O[C@H]1CC[C@H]2[C@@H]3CCC4=CC(=O)CC[C@]4(C)[C@H]3CC[C@]12C` [Testosterone propionate], the ALDHbr in test [1] amounted to 0.744; in test [2] it was 0.708; in test [3], 1.8; in test [4] it was 0.998.
Taken in the same sequence, the figures for `C[N+]1(C)[C@@H]2CC[C@H]1C[C@@H](OC(=O)C(CO)c1ccccc1)C2` (stereo not given in full) [Methylatropine nitrate] were 1.04, 1.02, 0.981 and 0.962.
Consider `CN[C@@H]1[C@@H](O)[C@@H](O[C@@H]2[C@@H](O)[C@H](O[C@H]3O[C@H](CN)CC[C@H]3N)[C@@H](N)C[C@H]2N)OC[C@]1(C)O.CN[C@@H]1[C@@H](O)[C@@H](O[C@@H]2[C@@H](O)[C@H](O[C@H]3O[C@H]([C@@H](C)N)CC[C@H]3N)[C@@H](N)C[C@H]2N)OC[C@]1(C)O.CN[C@@H]1[C@@H](O)[C@@H](O[C@@H]2[C@@H](O)[C@H](O[C@H]3O[C@H]([C@@H](C)NC)CC[C@H]3N)[C@@H](N)C[C@H]2N)OC[C@]1(C)O` [Gentamicine sulfate], for which the ALDHbr in test [1] was 1.18; in test [2], 0.845; in test [3], 1.13; in test [4], 0.927.
Taken in the same sequence, the figures for `CN(C)C(=O)Oc1ccc[n+](C)c1` [Pyridostigmine iodide] were 1.09, 0.981, 1.02 and 1.12.
Taken in the same sequence, the figures for `Cc1cccc(C)c1NC1=NCCCS1` [Xylazine] were 1.06, 0.896, 0.995 and 1.16.
The matching figures for `C=C(C)[C@@H]1[C@H]2OC(=O)[C@@H]1[C@]1(O)C[C@H]3O[C@]34C(=O)O[C@H]2[C@]14C` [Picrotoxinin]: 0.966, 0.964, 0.93 and 1.01.
In the case of `NC(=O)OCCCc1ccccc1` [Phenprobamate], the ALDHbr in test [1] is 1.15; in test [2], 0.926; in test [3], 1.16; in test [4], 1.07.
For `C[C@]12Cc3c[nH]nc3C[C@@H]1CC[C@@H]1[C@@H]2CC[C@@]2(C)[C@H]1CC[C@]2(C)O` [Stanozolol], the ALDHbr stood at 0.828 in test [1], 0.884 in test [2], 1.23 in test [3] and 0.818 in test [4].
Turning to `O=[N+]([O-])O[C@@H]1CO[C@H]2[C@@H]1OC[C@@H]2O` [Isosorbide mononitrate], the ALDHbr was found to be 0.783 in test [1], 0.988 in test [2], 0.829 in test [3] and 1.01 in test [4].
In the case of `COc1ccc(CCN)cc1OC` [Homoveratrylamine], the ALDHbr was determined as 1.05 in test [1], 0.972 in test [2], 1.01 in test [3] and 1.18 in test [4].
For `C[N+]1([O-])[C@@H]2C[C@@H](OC(=O)[C@H](CO)c3ccccc3)C[C@H]1[C@@H]1O[C@@H]12` (stereo not given in full) [Scopolamin-N-oxide hydrobromide], the ALDHbr was 1.17 in test [1], 1.26 in test [2], 1.16 in test [3] and 1.06 in test [4].
